Source: publication PMC3037348, “Epstein-Barr Virus Nuclear Antigen 3C Facilitates G1-S Transition by Stabilizing and Enhancing the Function of Cyclin D1” (PLoS Pathogens, 2011)
No constants are given. Whether binding was seen depends on the method and setting. Binding seen in cells or lysates may run through a third protein. Some binding calls cover weakened binding; strength is not graded here.

Columns and labels:
[1] = molecular target: Cyclin D1, endogenous in B-cell lines (human (endogenous in LCL1, LCL2, BJAB)) (UniProt P24385); experiment: co-IP; 50 million B cells (LCL1, LCL2, BJAB_E3C#10; BJAB as control) lysed in RIPA buffer; IP with Cyclin D1 specific antibody; EBNA3C detected by western blot with A10
[2] = molecular target: GST-Cyclin D1 (full-length) (UniProt P24385); experiment: pull-down; GST or GST-Cyclin D1 beads incubated with lysates of 50 million BJAB, BJAB_E3C#7 or BJAB_E3C#10 cells; binding buffer 1x PBS, 0.1% NP-40, 0.5 mM DTT, 10% glycerol; EBNA3C detected by western blot with A10; only the target purified
[3] = molecular target: myc-tagged EBNA3C residues 621-992 (Epstein-Barr virus) (UniProt P03204); experiment: co-IP; 15 million HEK 293T cells co-transfected with tagged constructs, harvested at 36 h, lysed in RIPA buffer (1% NP-40, 10 mM Tris pH 8.0, 2 mM EDTA, 150 mM NaCl); IP with 1 µg myc or flag antibody overnight at 4°C; western blot
[4] = molecular target: myc-tagged EBNA3C residues 1-365 (Epstein-Barr virus) (UniProt P03204); experiment: as above
[5] = molecular target: myc-tagged EBNA3C residues 366-620 (Epstein-Barr virus) (UniProt P03204); experiment: as above
[6] = molecular target: myc-tagged full-length EBNA3C (residues 1-992) (Epstein-Barr virus) (UniProt P03204); experiment: as above
[7] = molecular target: GST-Cyclin D1 (full-length) (UniProt P24385); experiment: pull-down; GST or GST-Cyclin D1 proteins incubated overnight with 35S-labeled in vitro translated EBNA3C proteins precleared with GST-beads (1 h, 4°C); binding buffer 1x PBS, 0.1% NP-40, 0.5 mM DTT, 10% glycerol; SDS-PAGE and phosphoimager; only the target purified
[8] = molecular target: GST-Cyclin D1 residues 241-295 (UniProt P24385); experiment: as above
[9] = molecular target: GST-Cyclin D1 residues 40-170 (UniProt P24385); experiment: as above
[10] = molecular target: GST-Cyclin D1 residues 171-260 (UniProt P24385); experiment: as above
[11] = molecular target: flag-tagged EBNA3C (Epstein-Barr virus) (UniProt P03204); experiment: co-IP; 15 million HEK 293T cells co-transfected with tagged constructs, harvested at 36 h, lysed in RIPA buffer (1% NP-40, 10 mM Tris pH 8.0, 2 mM EDTA, 150 mM NaCl); IP with 1 µg myc or flag antibody overnight at 4°C; western blot

Substance: EBNA3C stably expressed in BJAB cells (from UniProt P03204 1-992)
- binding [1]: binds
- binding [2]: binds

Substance: EBNA3C, endogenous in EBV transformed lymphoblastoid cell lines (from UniProt P03204 1-992)
- binding [1]: binds

Substance: flag-tagged Cyclin D1 (from UniProt P24385 1-295)
- binding [3]: no binding
- binding [4]: binds
- binding [5]: no binding
- binding [6]: binds

Substance: flag-tagged Cyclin D2 (from UniProt P30279 1-289)
- binding [6]: binds

Substance: flag-tagged Cyclin D3 (from UniProt P30281 1-292)
- binding [6]: binds

Substance: in vitro translated EBNA3C residues 1-100 (from UniProt P03204 1-100) (domain or fragment)
- binding [7]: no binding

Substance: in vitro translated EBNA3C residues 1-129 (from UniProt P03204 1-129) (domain or fragment)
- binding [7]: no binding

Substance: in vitro translated EBNA3C residues 1-159 (from UniProt P03204 1-159) (domain or fragment)
- binding [7]: binds

Substance: in vitro translated EBNA3C residues 1-200 (from UniProt P03204 1-200) (domain or fragment)
- binding [7]: binds

Substance: in vitro translated full-length EBNA3C (from UniProt P03204 1-992)
- binding [8]: no binding
- binding [7]: binds
- binding [9]: no binding
- binding [10]: binds

Substance: myc-tagged GSK-3β (from UniProt P49841 1-420) (enzyme)
- binding [11]: binds
